{"source": "PubChem BioAssay AID1345082", "about": "(National Center for Advancing Translational Sciences (NCATS), 2018)", "note": "Several values for one entry are separate records, joined by “and”; a condition that tells them apart may be missing. Identical values can stand only once. Among all 94,000 compounds or so, about 4,000 (4.3%) were called active. The shares of active, inactive and inconclusive entries below differ from those in the screen. The call rests on the fitted dose curve; in most records, active means well fitted inhibition curve with a large enough effect; inconclusive means small, poorly fitted or top-dose-only effect; inactive means no such curve, though single readings can be large or run the other way. Potencies beside an inconclusive call are fits to weak or partial responses and may not hold up. On the % scale 0 is the no-effect control and ±100 the full control effect; potency means the concentration at half of the fitted maximal effect; tags describe the fitted curve by direction and shape.", "data": [{"test": "Cytotoxic Profiling in NIH 3T3 Cell Line of Diverse Libraries Using Quantitative High-Throughput Screening; further: nearly all actives have a fitted effect of over 55% in size", "settings": "NIH 3T3 viability, CellTiter-Glo ATP luminescence, 48-72 h; activity change, negative = cytotoxicity: at 96.7 µM (top of the series) unless noted; series mostly up to 96.7 µM", "outline": "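Viability of NIH 3T3 cells after 48 or 72 hr compound treatment at 37 °C was assessed by CellTiter-Glo, with luminescence imaged following a 10 min room-temperature step.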", "values": [{"smiles": "CCC1Oc2ccc(NC(=O)c3ccccc3)cc2CN(Cc2cc(F)cc(F)c2)C1=O", "note": "(configuration not stated)", "Potency": "inconclusive: 44.7 µM [inhibitor, partial curve, poor fit]"}, {"smiles": "O=C1CCN(C(=O)c2ccc3ccccc3n2)CCOCCN1", "activity change, negative = cytotoxicity": "inactive: -5.35%"}, {"smiles": "COc1cccc(CN2CCCN(S(=O)(=O)c3ccccc3)CCC(=O)NCC2)c1OC", "Potency": "inconclusive: 63.1 µM [inhibitor, partial curve, poor fit]"}, {"smiles": "COc1ccccc1-c1cc2c(nc1-c1ccccc1)nc(C(=O)NCCN(C)C)n2C", "Potency": "active: 35.5 µM"}, {"smiles": "O=C1NCCCCCN(C(=O)c2ccncc2)[C@H]2CCCC[C@@H]12", "activity change, negative = cytotoxicity": "inactive: -2.93%"}, {"smiles": "COc1ccccc1-c1ccc(CN2CCCC(c3nc4ccc(F)cc4c(=O)[nH]3)C2)cc1", "note": "(configuration not stated)", "Potency": "inconclusive: 39.8 µM [inhibitor, partial curve, poor fit] and active: 39.8 µM"}, {"smiles": "O=C(c1ccccc1Cl)N1C[C@@H](CO)[C@H](c2nc(C3CC3)no2)C1", "activity change, negative = cytotoxicity": "inactive: -21.4%"}, {"smiles": "COc1ccc(C(=O)NC2CCN(c3cc(-c4ccc(F)cc4)[nH]n3)CC2)c(OC)c1", "Potency": "inconclusive: 31.6 µM [inhibitor, full curve]"}, {"smiles": "COc1ccccc1CN(C)C1CCc2ccccc21", "note": "(configuration not stated)", "Potency": "inconclusive: 89.1 µM [inhibitor, partial curve, poor fit]"}, {"smiles": "CCCCCNC(=O)c1ccc(CN2C(=O)NC3(CCS(=O)(=O)CC3)C2=O)cc1", "activity change, negative = cytotoxicity": "inactive: -14.4%"}, {"smiles": "Cc1ccc(CN2Cc3[nH]cnc3C[C@H]2c2nc(-c3ccc4ccccc4c3)no2)cc1", "Potency": "active: 44.7 µM"}, {"smiles": "CC(C)N1CC(C(=O)NCc2cccc(C(F)(F)F)c2)NC1=O", "note": "(configuration not stated)", "activity change, negative = cytotoxicity": "inactive: -27.5% [at 138 µM]"}, {"smiles": "O=C(NC1CCCCC1)c1nn(CCOc2ccccc2)c2c1CNCC2", "Potency": "inconclusive: 44.7 µM [inhibitor, partial curve, poor fit]"}, {"smiles": "O=[S+]1([O-])c2cccnc2O[C@@H](COCc2ccccc2)CN1Cc1ccc2c(c1)OCO2", "Potency": "inconclusive: 28.2 µM [inhibitor, partial curve, poor fit]"}, {"smiles": "CN(CCc1ccccc1)C(=O)CCC1CCN(c2cc(NC3CC3)ncn2)CC1", "Potency": "inconclusive: 50.1 µM [inhibitor, partial curve, poor fit]"}, {"smiles": "Cc1cccc(CN2C[C@@H](F)[C@@H](OCc3nc4ccccc4[nH]3)C2)n1", "activity change, negative = cytotoxicity": "inactive: -28.5% [at 174 µM]"}, {"smiles": "COc1ccc(C(=O)N[C@@H]2CCC[C@@H]2C(=O)N2CCN(c3cc(C)ccc3C)CC2)cn1", "outcome": "inactive"}, {"smiles": "Cc1nn(-c2ccccc2)c2c1C(C(C)C)N(C1CCCN(C(=O)c3ccc(C(F)(F)F)cc3)C1)C2=O", "note": "(configuration not stated)", "Potency": "inconclusive: 39.8 µM [inhibitor, partial curve]"}, {"smiles": "COc1ccc(-c2nc(N3CCOC[C@H]3C)cc3c2CN(C(C)C)C3=O)cc1", "Potency": "active: 79.4 µM"}, {"smiles": "Cc1ccccc1NC(=O)N1CCc2c(c3cc(F)ccc3n2C)C1", "Potency": "inconclusive: 70.8 µM [inhibitor, single point]"}, {"smiles": "CCCn1ccc2sc(C)c(C(=O)O)c2c1=O", "outcome": "inactive"}, {"smiles": "COc1ccc(CCNC(=O)C2CCCN2C(=O)c2cccc(-c3ccccc3OC)c2)cc1", "note": "(configuration not stated)", "Potency": "inconclusive: 50.1 µM [inhibitor, partial curve, poor fit]"}, {"smiles": "O=C(NC1CCN(c2cc(-c3ccc(F)cc3)[nH]n2)CC1)c1c[nH]c2ccccc12", "Potency": "active: 31.6 µM"}, {"smiles": "O=C1CC(c2noc(COc3ccc(Cl)cc3)n2)CN1C1CCCCC1", "note": "(configuration not stated)", "Potency": "inconclusive: 44.7 µM [inhibitor, partial curve, poor fit]"}, {"smiles": "COc1ccc2[nH]c3c(c2c1)CCNC31CCN(C(=O)c2ccc(C)nc2)CC1", "activity change, negative = cytotoxicity": "inactive: -11.2%"}, {"smiles": "Cc1nc(C)c(C(=O)N2CCCC(COc3ccccc3C(=O)N3CCOCC3)C2)s1", "note": "(configuration not stated)", "Potency": "inconclusive: 70.8 µM [inhibitor, single point]"}, {"smiles": "CN(C)c1ccc(CN2Cc3[nH]cnc3C[C@H]2c2nc(-c3ccncc3)no2)cc1", "Potency": "inconclusive: 126 µM [inhibitor, single point]"}, {"smiles": "COCCc1nncn1C1CCN(S(=O)(=O)c2ccc(F)c(C)c2)CC1", "activity change, negative = cytotoxicity": "inactive: -9.8%"}, {"smiles": "COCCOC1CN(C2CCN(Cc3ccccc3)CC2)C12CCCCC2", "note": "(configuration not stated)", "Potency": "inconclusive: 44.7 µM [inhibitor, partial curve, poor fit]"}, {"smiles": "O=C(c1ccc(F)cc1)N1CCCC(c2nn(-c3cccc(Cl)c3)c(=O)[nH]2)C1", "note": "(configuration not stated)", "Potency": "inconclusive: 44.7 µM [inhibitor, partial curve]"}, {"smiles": "O=C(NCc1cccnc1)c1nc(-c2ccc(Cl)cc2Cl)c2cnccn12", "Potency": "inconclusive: 44.7 µM [inhibitor, partial curve, poor fit]"}, {"smiles": "COc1ccc(-c2nc(C3CC3)nc3c2CN(C(=O)c2ccc4c(c2)OCO4)CC3)cc1", "Potency": "inconclusive: 50.1 µM [inhibitor, partial curve, poor fit]"}, {"smiles": "COc1ccc([S+](=O)([O-])N2CCC3(CC2)OCCN(c2ccc(F)cc2)C3=O)cc1", "Potency": "inconclusive: 89.1 µM [inhibitor, partial curve, poor fit]"}, {"smiles": "O=C(Nc1ccc([C@@H](O)[C@H]2COCC(=O)N2Cc2ccccc2F)cc1)c1cccs1", "activity change, negative = cytotoxicity": "inactive: -7.99%"}, {"smiles": "CN1C(=O)[C@@H]2C[C@@H](CN2Cc2ccc3ccccc3n2)Oc2ccccc21", "Potency": "active: 79.4 µM"}, {"smiles": "O=C(NCc1cc(F)ccc1F)C1CN(S(=O)(=O)c2cccnc2)CC12CCCCC2", "note": "(configuration not stated)", "activity change, negative = cytotoxicity": "inactive: -19.1%"}, {"smiles": "COc1ncccc1-c1cnc2[nH]cc(CC(=O)Nc3cccc(Cl)c3)c2c1", "Potency": "inconclusive: 12.6 µM [inhibitor, full curve, poor fit]"}, {"smiles": "Cc1n[nH]c(C)c1CCCN(C)c1cc(C2CC(N)C2)nc(N)n1", "note": "(configuration not stated)", "Potency": "inconclusive: 10 µM [inhibitor, full curve]"}, {"smiles": "Cc1ccc(OCC(=O)N2CC(C(=O)NCCc3ccncc3)C3(CCOCC3)C2)cc1", "note": "(configuration not stated)", "outcome": "inactive"}, {"smiles": "O=C(NCC(F)F)C1CCN(c2nccc(Nc3ccccc3Cl)n2)CC1", "Potency": "inconclusive: 44.7 µM [inhibitor, partial curve, poor fit]"}, {"smiles": "O=C(CCc1ccccc1)N1CCCC(CN2CCCC2)CC1", "note": "(configuration not stated)", "Potency": "inconclusive: 50.1 µM [inhibitor, partial curve, poor fit]"}, {"smiles": "Fc1ccc2nc(CO[C@H]3CN(Cc4ccc5ccccc5n4)C[C@H]3F)[nH]c2c1", "Potency": "inconclusive: 89.1 µM [inhibitor, partial curve]"}]}]}
